Results from the supplement of paper PMC12217912.
The list shows a part of the results. Sequences were assembled here from the parent chain. Inactive controls read about 0.05.

B1: TEV protease; numbered along this chain (parent)
chain: MGESLFKGPRDYNPISSSICHLTNESDGHTTSLYGIGFGPFIITNKHLFRRNNGTLVVQSLHGVFKVKDTTTLQQHLVDGRDMIIIRMPKDFPPFPQKLKFREPQREERICLVTTNFQTKSMSSMVSDTSCTFPSGDGIFWKHWIQTKDGQCGSPLVSTRDGFIVGIHSASNFTNTNNYFTSVPKNFMELLTNQEAQQWVSGWRLNADSVLWGGHKVFMVKPEEPFQPVKEATQL

Variants of: B1
Test: raw area under fraction-flipped curve 0-4 h after induction (AUC4h, not background-subtracted), DNA-recorder readout of cleavage of the substrate (dimensionless); higher = more cleavage of the substrate by the protease variant
Conditions: temperature: 34 °C; time window: 0-4 h after rhamnose induction
Method: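 In vivo DNA recorder in E. coli TOP10(DE3) ΔrhaA at 34 °C. Each TEVp single-site mutant (parent TEVp 0) is paired with a single-site variant of the 7-mer TEVs (canonical ENLYFQ|S). The substrate sits between flexible linkers in a Bxb1-sfGFP-TEVs-SsrA fusion, so cleavage stabilises Bxb1 and speeds flipping of a recombination array, read by NGS. The value is the raw area under the fraction-flipped curve over 0-4 h after rhamnose induction (AUC4h), with ≥20 reads per time point. It is not background-subtracted; inactive controls average about 0.047.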
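Note: Bxb1 expression induced with 0.2% (w/v) L-rhamnose at OD600 near 0.5, cultures sampled hourly, flipped fraction per protease–substrate barcode pair counted by paired-end Illumina sequencing.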

Row | Variant | area with substrate ENLYFAS | area with substrate ENLYFCS | area with substrate ENLYFES | area with substrate ENLYFFS | area with substrate ENLYFHS | area with substrate ENLYFIS | area with substrate ENLYFKS | area with substrate ENLYFLS | area with substrate ENLYFMS | area with substrate ENLYFPS | area with substrate ENLYFRS | area with substrate ENLYFSS | area with substrate ENLYFVS | area with substrate ENLYFWS | area with substrate ENLYFNS | area with substrate ENLYFTS | area with substrate ENLYFGS | area with substrate ENLYFYS | area with substrate ENLYFDS
1 | D149G | 0.0483 | 0.0433 | 0.0702 | 0.0786 | 0.0591 | 0.0496 | 0.0704 | 0.0711 | 0.0545 | 0.0611 | 0.0565 | 0.043 | 0.0255 | 0.0564 | – | – | – | – | –
2 | N45L | – | 0.0577 | 0.0633 | 0.0695 | – | 0.0526 | 0.0443 | 0.072 | 0.0718 | 0.0569 | 0.0551 | 0.0531 | 0.058 | – | 0.104 | 0.0693 | – | – | –
3 | V64Y | – | 0.0455 | – | – | – | 0.0638 | 0.0697 | – | 0.0611 | – | – | – | – | – | – | – | – | – | –
4 | V64I | – | 0.0805 | 0.0739 | 0.0657 | 0.0474 | – | 0.0719 | 0.076 | 0.0736 | 0.0582 | – | 0.0742 | – | – | 0.0748 | 0.0585 | 0.0472 | 0.0535 | –
5 | G80I | – | 0.0676 | 0.081 | 0.0687 | 0.0436 | 0.0405 | 0.0526 | – | 0.0584 | – | – | – | – | 0.0558 | 0.044 | 0.0394 | 0.0503 | 0.0492 | 0.0475
6 | K221E | – | 0.0596 | – | 0.0652 | 0.0657 | 0.0612 | 0.0593 | 0.0793 | 0.0646 | 0.0561 | 0.0569 | 0.0581 | 0.0662 | 0.0529 | 0.066 | 0.0534 | 0.0483 | 0.0805 | 0.0571
7 | R160F | – | 0.0672 | 0.0703 | 0.0677 | 0.0527 | 0.0627 | 0.0813 | 0.0518 | 0.0784 | 0.062 | 0.0582 | 0.0628 | 0.0394 | 0.0706 | – | 0.0712 | 0.062 | 0.0627 | 0.0661
8 | G35E | – | 0.0463 | – | 0.045 | – | – | – | – | – | 0.0654 | 0.0361 | – | 0.0412 | 0.0316 | 0.0462 | 0.0437 | – | – | –
9 | N186V | – | 0.0536 | 0.047 | 0.0475 | 0.0586 | 0.0485 | 0.0663 | – | 0.0427 | – | – | – | – | 0.019 | – | – | 0.0517 | – | –
10 | S17G | 0.0504 | 0.0662 | 0.051 | 0.0704 | 0.0612 | 0.054 | 0.0673 | 0.0643 | 0.0553 | 0.0644 | 0.0609 | 0.0507 | 0.058 | – | 0.0715 | 0.0579 | 0.0641 | 0.055 | 0.0625
11 | R106G | – | 0.0605 | – | 0.0715 | – | 0.0514 | – | 0.0567 | 0.0536 | 0.0664 | 0.0715 | – | – | 0.0405 | 0.0595 | – | – | 0.0525 | –
12 | T176G | – | 0.0732 | 0.0627 | 0.0675 | – | 0.0524 | 0.0589 | 0.0593 | – | 0.0648 | 0.0574 | 0.0641 | 0.0525 | 0.0591 | 0.0499 | 0.0557 | – | – | –
13 | V200Q | – | 0.0559 | – | – | – | 0.0632 | – | – | – | 0.0544 | – | – | – | – | 0.0693 | – | – | 0.0494 | –
14 | F38R | 0.0533 | 0.0527 | – | 0.0519 | 0.0565 | 0.055 | 0.0566 | 0.0369 | 0.0509 | 0.0528 | – | 0.0545 | 0.0047 | 0.0747 | 0.0694 | 0.0447 | – | – | 0.0481
